{
  "source": "PubChem BioAssay AID504832",
  "about": "(National Center for Advancing Translational Sciences (NCATS), 2011)",
  "note": "Values joined by “and” are separate entries in the source; they are usually repeats but may differ in a detail not shown here. Identical values can stand only once. Screen size: about 310,000 compounds; about 18,000 (5.8%) were called active. Inconclusive means that the source gave no clear call. Such entries were picked first, then a sample of the others. Calls follow the shape of the dose curve; as a rule, active = well fitted inhibition curve with a large enough effect; inconclusive = small, poorly fitted or top-dose-only effect, or another doubt; inactive = no such curve, though single readings can be large or run the other way. Where the call is inconclusive, the potency comes from a doubtful curve fit. % is scaled to controls: 0 for no effect and ±100 for the full control effect; potency is read from the fitted curve at half-maximal effect; tags tell the direction and shape of the fitted curve.",
  "data": [
    {"test": "Primary qHTS for delayed death inhibitors of the malarial parasite plastid, 48 hour incubation", "settings": "P. falciparum luciferase growth in erythrocytes; series mostly up to 28.7 µM; activity change, negative = inhibition: at the top concentration", "outline": "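Here the parasites carry a stable luciferase gene and grow inside erythrocytes in Albumax-based RPMI medium with compound for one erythrocytic cycle. Activity is scored as loss of luminescent signal.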", "values": [
      {"smiles": "CSc1nc(N(C)NC(=O)c2ccccc2)c2ccccc2n1", "Potency": "inconclusive: 13.1 µM [inhibitor, partial curve]"},
      {"smiles": "COc1ccc(CCn2c(C)cc(C(=O)CN3C(=O)C(=O)N(C4CCCC4)C3=O)c2C)cc1OC", "Potency": "active: 9.28 µM"},
      {"smiles": "O=C1NC(c2cccc([N+](=O)[O-])c2)=CCN1c1ccccc1O", "Potency": "inconclusive: 18.5 µM [inhibitor, partial curve, poor fit]"},
      {"smiles": "CCN1CCN(S(=O)(=O)c2ccc(Cl)c(C(=O)Nc3ccccc3N3CCOCC3)c2)CC1", "Potency": "inconclusive: 13.1 µM [inhibitor, single point]"},
      {"smiles": "COc1ccccc1N(C)S(=O)(=O)c1ccc(C(=O)NCC(C)C)cc1", "activity change, negative = inhibition": "inactive: -14%"},
      {"smiles": "O=C1S/C(=C\\c2ccc(O)c([N+](=O)[O-])c2)C(=O)N1c1ccccc1Cl", "Potency": "inconclusive: 14.7 µM [inhibitor, single point]"},
      {"smiles": "COc1ccc(C(=O)N/N=C/c2ccc(N3CCOCC3)s2)cc1OC", "Potency": "inconclusive: 18.5 µM [inhibitor, single point]"},
      {"smiles": "N#CC(C#N)=Cc1ccc(O)c(O)c1", "Potency": "inactive and inconclusive: 5.22 µM [inhibitor, partial curve, poor fit]"},
      {"smiles": "COc1ccc(NS(=O)(=O)c2ccc(NS(=O)(=O)c3cccs3)cc2)c(OC)c1", "activity change, negative = inhibition": "inactive: 1.08%"},
      {"smiles": "CC(=O)OCC(=O)[C@@]1(O)CC[C@H]2[C@@H]3CCC4=CC(=O)C=C[C@]4(C)[C@H]3[C@@H](O)C[C@@]21C", "Potency": "inconclusive: 20.8 µM [inhibitor, partial curve, poor fit]"},
      {"smiles": "O=S1(=O)CC2NC(=S)N(c3cccc(Br)c3)C2C1", "note": "(configuration not stated)", "activity change, negative = inhibition": "inactive: 9.43%"},
      {"smiles": "Cc1nc(NC(=O)CN2CCN(c3ccccc3F)CC2)sc1C(=O)N(C)C", "Potency": "inconclusive: 0.0329 µM [inhibitor, full curve, poor fit]"},
      {"smiles": "COc1ccc(CCNC(=O)C2CC(c3cccc([N+](=O)[O-])c3)=NO2)cc1", "note": "(configuration not stated)", "activity change, negative = inhibition": "inactive: 25.2%"},
      {"smiles": "CC(C)[C@H]1C(=O)N2CCC[C@H]2[C@]2(O)O[C@](NC(=O)[C@@H]3C=C4c5cccc6[nH]cc(c56)C[C@H]4N(C)C3)(C(C)C)C(=O)N12", "Potency": "active: 5.86 µM"},
      {"smiles": "CCCCN(C(=O)CSc1nn(-c2ccc(F)cc2)c(=S)s1)c1c(N)n(CCCC)c(=O)[nH]c1=O", "Potency": "inconclusive: 11.7 µM [inhibitor, single point]"},
      {"smiles": "CC(C)c1ccc(-c2nc(N3CCCCC3)[nH]c(=O)c2C#N)cc1", "activity change, negative = inhibition": "inactive: -22.6%"},
      {"smiles": "Cc1ncc(CN2CCC(C(=O)Nc3ccc(Oc4cccnc4)cc3)CC2)cn1", "Potency": "inconclusive: 9.28 µM [inhibitor, partial curve, poor fit]"},
      {"smiles": "Cc1cccc(NC(=O)CN2CCc3cc4c(cc3C2C)OCCCO4)c1", "note": "(configuration not stated)", "Potency": "inconclusive: 18.5 µM [inhibitor, partial curve, poor fit]"},
      {"smiles": "O=C(Nc1ccc(Cl)cc1)c1ccc2c(c1)OCO2", "activity change, negative = inhibition": "inactive: 198%"},
      {"smiles": "COc1ccc2c(c1)c(C(=O)N/N=C/c1ccc(Cl)cc1)c(C)n2C", "Potency": "inconclusive: 8.28 µM [inhibitor, partial curve]"},
      {"smiles": "CC1(C)O[C@@H]2C[C@H]3[C@@H]4CCC5=CC(=O)C=C[C@]5(C)[C@H]4C(O)C[C@]3(C)[C@]2(C(=O)CO)O1", "note": "(some centres not stated)", "Potency": "inconclusive: 8.49 µM [inhibitor, partial curve, poor fit]"},
      {"smiles": "O=C(CSc1nc2c(c(=O)n1-c1ccc(F)cc1)SCC2)NCc1ccco1", "Potency": "inconclusive: 10.4 µM [inhibitor, single point]"},
      {"smiles": "CCN(CC)S(=O)(=O)c1ccc2c(c1)nc(SCC(=O)NC1CC1)n2-c1ccccc1OC", "Potency": "active: 5.86 µM"},
      {"smiles": "CCC(C)(C)n1nnnc1CN1CCC(n2c(C)nc3cc(C(F)(F)F)ccc32)CC1", "Potency": "inconclusive: 0.828 µM [inhibitor, full curve]"},
      {"smiles": "CCCCc1c(O)nc(SCC(=O)N2CCCCC2)[nH]c1=O", "activity change, negative = inhibition": "inactive: 21.9%"},
      {"smiles": "CCOC(=O)c1c(CN(CC)CC)oc2ccc(OC)cc12", "Potency": "inconclusive: 10.4 µM [inhibitor, single point]"},
      {"smiles": "Cc1nn(CC(=O)Nc2ccc3nc4n(c(=O)c3c2)CCCC4)c(C)c1[N+](=O)[O-]", "activity change, negative = inhibition": "inactive: 3.71%"},
      {"smiles": "COc1ccc(NC(=S)NNC(=O)CNc2ccc(Cl)cc2)cc1", "Potency": "inconclusive: 14.7 µM [inhibitor, single point]"},
      {"smiles": "Cc1ccc(NC(=O)CC2SC(=NC3CCCCC3)NC2=O)cc1", "note": "(configuration not stated)", "Potency": "inconclusive: 18.5 µM [inhibitor, single point]"},
      {"smiles": "Cc1cccc(NC(=S)N2CCC(N(C)CC3CCCO3)CC2)c1", "note": "(configuration not stated)", "activity change, negative = inhibition": "inactive: 20.2%"},
      {"smiles": "Nc1c2c(nc3ccc(Br)cc13)N(C1CCCCC1)CC2", "Potency": "inconclusive: 2.62 µM [inhibitor, full curve, poor fit]"},
      {"smiles": "CC(Sc1nnc(Nc2ccccc2)s1)C(=O)Nc1nc(-c2ccccc2)cs1", "note": "(configuration not stated)", "Potency": "inconclusive: 11.7 µM [inhibitor, single point]"},
      {"smiles": "Cc1ccc2[nH]c3c(N4CCc5ccccc5C4)ncnc3c2c1", "Potency": "inconclusive: 2.08 µM [inhibitor, partial curve, poor fit]"},
      {"smiles": "COCCCN(C(=S)NC(=O)C12CC3CC(CC(C3)C1)C2)c1c(N)n(Cc2ccccc2)c(=O)[nH]c1=O", "Potency": "inconclusive: 9.28 µM [inhibitor, single point]"},
      {"smiles": "Cc1ccc2nc(C)c(CN3CCN(c4ccc([N+](=O)[O-])cc4Cl)CC3)n2c1", "Potency": "inconclusive: 6.57 µM [inhibitor, single point]"},
      {"smiles": "Cc1nc2cc(F)ccc2n1C1CCN(Cc2nnnn2CCc2ccccc2)CC1", "Potency": "active: 9.28 µM"},
      {"smiles": "Cc1nn(CC(=O)NCCc2ccc(Cl)cc2)c(=O)c2cccn12", "activity change, negative = inhibition": "inactive: 10.3%"},
      {"smiles": "CCc1cc2c(=O)c(-c3cnn(-c4ccccc4)c3)coc2c(CN2CCOCC2)c1O", "Potency": "inconclusive: 9.28 µM [inhibitor, partial curve, poor fit]"},
      {"smiles": "COCCn1c(N)c(NCc2ccccc2)c(=O)n(CC(=O)Nc2cc(C)ccc2C)c1=O", "Potency": "inconclusive: 10.4 µM [inhibitor, single point]"},
      {"smiles": "CC(C)(C)c1ccc(Oc2ccc(NC(=O)c3cccs3)cn2)cc1", "Potency": "active: 2.62 µM"},
      {"smiles": "CC(C)OC(=O)C1Cc2ccccc2CN1S(=O)(=O)c1cccs1", "note": "(configuration not stated)", "Potency": "inconclusive: 13.1 µM [inhibitor, partial curve]"},
      {"smiles": "Cc1cccc(C)c1OC(=O)C(c1ccccc1)c1ccccc1", "Potency": "inconclusive: 18.5 µM [inhibitor, single point]"},
      {"smiles": "O=C(Nc1cccc(C2=NCCN2)c1)Nc1cccc(C2=NCCN2)c1", "Potency": "active: 1.69 µM"},
      {"smiles": "O=C(Cn1cc2c(n1)CCCCC2)Nc1ccccc1Cl", "Potency": "inconclusive: 2.33 µM [inhibitor, partial curve, poor fit]"},
      {"smiles": "Cc1ccccc1CN1C(=O)C2(OCCCO2)c2ccccc21", "Potency": "inconclusive: 20.8 µM [inhibitor, partial curve, poor fit]"},
      {"smiles": "N#Cc1c2c(c(NCCN3CCOCC3)n3c1nc1ccccc13)CCCC2", "Potency": "inconclusive: 1.31 µM [inhibitor, partial curve, poor fit]"},
      {"smiles": "CCCn1nc(NC(=O)CC)c2cc3cccc(C)c3nc21", "Potency": "inconclusive: 14.7 µM [inhibitor, partial curve]"},
      {"smiles": "COc1ccc(S(=O)(=O)N2CCCCCC2)cc1C(=O)NCCc1ccc(F)cc1", "Potency": "inconclusive: 9.28 µM [inhibitor, partial curve]"},
      {"smiles": "Cc1ccc(-c2nc3ncccn3c2Nc2ccccc2C)o1", "Potency": "inconclusive: 8.28 µM [inhibitor, single point]"},
      {"smiles": "Clc1ccc(OCCn2ccnc2)c(Cl)c1", "Potency": "inconclusive: 11.7 µM [inhibitor, single point]"},
      {"smiles": "NC(=S)N(c1ccccc1)c1ccccc1", "Potency": "inconclusive: 10.4 µM [inhibitor, single point]"},
      {"smiles": "O=C(COc1cccc2cccnc12)N/N=C/c1ccccc1O", "Potency": "inconclusive: 4.65 µM [inhibitor, partial curve, poor fit]"},
      {"smiles": "CCn1nc(C)c(CN2CCc3c([nH]c4ccccc34)C2c2ccc(F)c(OC)c2)c1C", "note": "(configuration not stated)", "Potency": "active: 2.62 µM"},
      {"smiles": "CCOC(=O)N1CCC(n2c(SCC(=O)OCc3ccccc3)nc3ccsc3c2=O)CC1", "Potency": "inconclusive: 13.1 µM [inhibitor, single point]"},
      {"smiles": "COC(=O)CCCC1=CC2=CC(=O)C(C)(OC(=O)CCc3ccccc3)C(=O)C2=CO1", "note": "(configuration not stated)", "Potency": "inconclusive: 18.5 µM [inhibitor, single point]"},
      {"smiles": "COc1ccc(CN2CCNC(=O)C2CC(=O)N2CCCN(C(C)=O)CC2)cc1OC", "note": "(configuration not stated)", "activity change, negative = inhibition": "inactive: 16.8%"},
      {"smiles": "Nc1ncnc2c1ncn2C1CCCC1", "Potency": "inconclusive: 18.5 µM [inhibitor, single point]"},
      {"smiles": "COc1ccc(/C=C2\\Oc3cc(OCC(=O)N4CC(O)C[C@H]4C(=O)O)ccc3C2=O)cc1OC", "note": "(some centres not stated)", "activity change, negative = inhibition": "inactive: 21.1%"},
      {"smiles": "O=C(COc1ccc(Cl)cc1Cl)N/N=C/CCc1ccccc1", "activity change, negative = inhibition": "inactive: 9.56%"},
      {"smiles": "N#Cc1c(N)oc(-c2cccs2)c1-c1cccs1", "Potency": "active: 9.28 µM"},
      {"smiles": "CC1=NN(c2ccccc2)C(=O)C1N=Nc1ccccc1", "note": "(configuration not stated)", "activity change, negative = inhibition": "inactive: 251%"},
      {"smiles": "O=C(CN1CCN(C(=O)c2ccco2)CC1)Nc1cc(Cl)ccc1Cl", "Potency": "active: 1.04 µM"},
      {"smiles": "Cc1nonc1NC(=O)OC1CCCCC1", "Potency": "inconclusive: 10.4 µM [inhibitor, partial curve, poor fit]"},
      {"smiles": "CCCCn1nnnc1NCc1ccc(N(CC)CC)cc1", "activity change, negative = inhibition": "inactive: 0.542%"},
      {"smiles": "C[C@@]12C(=O)Nc3ccc(Cl)cc3C(=O)N1[C@H]1c3ccccc3OC[C@@H]1[C@@H]2c1ccccc1", "Potency": "active: 13.1 µM"},
      {"smiles": "COCCN(C(=O)CSc1nnc2cc(C)c3ccccc3n12)c1c(N)n(Cc2ccccc2)c(=O)[nH]c1=O", "Potency": "inconclusive: 20.8 µM [inhibitor, partial curve, poor fit]"},
      {"smiles": "COc1cccc(OCC(O)CN2CCOCC2)c1", "note": "(configuration not stated)", "Potency": "inconclusive: 1.17 µM [inhibitor, full curve, poor fit]"}
    ]}
  ]
}
